# In the supplement of paper PMC8728848:
# The list shows a part of the results.
# Legend:
# Test in all cases: glycan array binding signal (z-score within array); higher = stronger binding
# Details in all cases: glycan notation: IUPAC condensed, linker removed
# [1] = molecular target: Gal(b1-4)GlcNAc(b1-3)Gal(b1-4)[Fuc(a1-3)]GlcNAc(b1-3)Gal(b1-4)[Fuc(a1-3)]GlcNAc
# Outline: (§1)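 Glycan array binding is given as a within-array Z-score, which can be read as non-binding when negative. The arrays, 3228 of them, came from the Consortium for Functional Glycomics database and were retained only where the protein sequence was available. Z-scores were averaged across arrays of the same protein sequence at different concentrations or buffers and across linkers.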
# [2] = molecular target: Gal(b1-4)GlcNAc(b1-3)GalNAc
# Outline: as §1
# [3] = molecular target: Gal(b1-4)GlcNAc(b1-3)[Fuc(a1-3)GlcNAc(b1-6)]Gal(b1-4)Glc
# Outline: as §1
# [4] = molecular target: Gal(b1-4)GlcNAc(b1-3)[Gal(b1-4)GlcNAc(b1-6)]Gal(b1-4)GlcNAc
# Outline: as §1
# [5] = molecular target: Gal(b1-4)GlcNAc(b1-3)[GlcNAc(b1-6)]Gal(b1-4)GlcNAc
# Outline: as §1
# [6] = molecular target: Gal(b1-4)GlcNAc(b1-6)Gal(b1-4)GlcNAc
# Outline: as §1
# [7] = molecular target: Gal(b1-4)GlcNAc(b1-6)GalNAc
# Outline: as §1
# [8] = molecular target: Gal(b1-4)GlcNAc(b1-6)[Gal(b1-3)]GalNAc
# Outline: as §1
# [9] = molecular target: Gal(b1-4)GlcNAc(b1-6)[Gal(b1-4)GlcNAc(b1-3)]GalNAc
# Outline: as §1
# Gal(b1-4)GlcNAc6P = molecular target: Gal(b1-4)GlcNAc6P
# Outline: as §1
# Gal(b1-6)Gal = molecular target: Gal(b1-6)Gal
# Outline: as §1
# Gal3S(b1-3)GalNAc = molecular target: Gal3S(b1-3)GalNAc
# Outline: as §1
# Gal3S(b1-3)GlcNAc = molecular target: Gal3S(b1-3)GlcNAc
# Outline: as §1
# [10] = molecular target: Gal3S(b1-3)[Fuc(a1-4)]GlcNAc
# Outline: as §1
# Gal3S(b1-4)Glc = molecular target: Gal3S(b1-4)Glc
# Outline: as §1
# Gal3S(b1-4)Glc6S = molecular target: Gal3S(b1-4)Glc6S
# Outline: as §1
# Gal3S(b1-4)GlcNAc = molecular target: Gal3S(b1-4)GlcNAc
# Outline: as §1
# [11] = molecular target: Gal3S(b1-4)[Fuc(a1-3)]Glc6S
# Outline: as §1
# [12] = molecular target: Gal3S(b1-4)[Fuc(a1-3)]GlcNAc
# Outline: as §1
# [13] = molecular target: Gal3S(b1-4)[Fuc(a1-3)]GlcNAc6S
# Outline: as §1
# Gal3S4S(b1-4)GlcNAc = molecular target: Gal3S4S(b1-4)GlcNAc
# Outline: as §1
# Gal3S6S(b1-4)GlcNAc = molecular target: Gal3S6S(b1-4)GlcNAc
# Outline: as §1
# Gal3S6S(b1-4)GlcNAc6S = molecular target: Gal3S6S(b1-4)GlcNAc6S
# Outline: as §1
# Gal4S(b1-4)GlcNAc = molecular target: Gal4S(b1-4)GlcNAc
# Outline: as §1
# Gal4S6S(b1-4)GlcNAc = molecular target: Gal4S6S(b1-4)GlcNAc
# Outline: as §1
# Gal6P(b1-4)GlcNAc = molecular target: Gal6P(b1-4)GlcNAc
# Outline: as §1
# Gal6S(b1-3)GlcNAc = molecular target: Gal6S(b1-3)GlcNAc
# Outline: as §1
# Gal6S(b1-3)GlcNAc6S = molecular target: Gal6S(b1-3)GlcNAc6S
# Outline: as §1
# Gal6S(b1-4)Glc = molecular target: Gal6S(b1-4)Glc
# Outline: as §1
# Gal6S(b1-4)Glc6S = molecular target: Gal6S(b1-4)Glc6S
# Outline: as §1
# Gal6S(b1-4)GlcNAc = molecular target: Gal6S(b1-4)GlcNAc
# Outline: as §1
# Gal6S(b1-4)GlcNAc6S = molecular target: Gal6S(b1-4)GlcNAc6S
# Outline: as §1
# GalNAc(a1-3)Gal = molecular target: GalNAc(a1-3)Gal
# Outline: as §1
# GalNAc(a1-3)GalNAc = molecular target: GalNAc(a1-3)GalNAc
# Outline: as §1
# [14] = molecular target: GalNAc(a1-3)GalNAc(b1-3)Gal(a1-4)Gal(b1-4)Glc
# Outline: as §1
# [15] = molecular target: GalNAc(a1-3)GalNAc(b1-3)Gal(a1-4)Gal(b1-4)GlcNAc
# Outline: as §1
# GalNAc(b1-3)Gal = molecular target: GalNAc(b1-3)Gal
# Outline: as §1
binder,measurement,setting,value
CaSRK1 (Capsicum annuum) (protein) MALCKIFPFAFILLSCSCYLISGQRFDYPTANLSTTWINSVSAPHSIDYTDGSRIRAILLRGTFGPRYACGFYCNGNCESYLFAIFIVQTNSASQITSPAIGFPQVVWSANRNNPVKINSTLQLTAEGDLVLRDADGTLAWSTNTAGKSVAGLSLTDEGNLALFDSKNATVWQSFDHPTDALVPGQKLVPGMKLTASVSRTNWTAGGLFALSAIDNGLVAFVESNPPQKYFEASVGGSNTSGGSNYVKYLNGSLTLFTHSADTTELILISITPASSAQYMKLESNGHLKVYEWTSRGWREVDDLLTGFRGECNYPTVCGRYGICTMGQCSCPTSSSSRTYFRPIDVRRPSLGCSEVTKLTCQNTKKHSPLEVEDVDYFAFKAGISDTDLNTCKRACLEKCSCKAAFFRSGLNSSRTRGDCYLPTEIFSIMNNEKDRTRYDSVAFIKVQV,glycan array binding signal (z-score),[1],-0.335
same,glycan array binding signal (z-score),[2],-0.343
same,glycan array binding signal (z-score),[3],0.216
same,glycan array binding signal (z-score),[4],-0.549
same,glycan array binding signal (z-score),[5],-0.104
same,glycan array binding signal (z-score),[6],0.04
same,glycan array binding signal (z-score),[7],-0.368
same,glycan array binding signal (z-score),[8],-0.309
same,glycan array binding signal (z-score),[9],-0.405
same,glycan array binding signal (z-score),Gal(b1-4)GlcNAc6P,0.124
same,glycan array binding signal (z-score),Gal(b1-6)Gal,-0.315
same,glycan array binding signal (z-score),Gal3S(b1-3)GalNAc,0.831
same,glycan array binding signal (z-score),Gal3S(b1-3)GlcNAc,0.257
same,glycan array binding signal (z-score),[10],-0.07
same,glycan array binding signal (z-score),Gal3S(b1-4)Glc,1.91
same,glycan array binding signal (z-score),Gal3S(b1-4)Glc6S,1.94
same,glycan array binding signal (z-score),Gal3S(b1-4)GlcNAc,0.461
same,glycan array binding signal (z-score),[11],-0.371
same,glycan array binding signal (z-score),[12],-0.079
same,glycan array binding signal (z-score),[13],1.97
same,glycan array binding signal (z-score),Gal3S4S(b1-4)GlcNAc,0.168
same,glycan array binding signal (z-score),Gal3S6S(b1-4)GlcNAc,-0.063
same,glycan array binding signal (z-score),Gal3S6S(b1-4)GlcNAc6S,2.4
same,glycan array binding signal (z-score),Gal4S(b1-4)GlcNAc,-0.406
same,glycan array binding signal (z-score),Gal4S6S(b1-4)GlcNAc,1.02
same,glycan array binding signal (z-score),Gal6P(b1-4)GlcNAc,-0.342
same,glycan array binding signal (z-score),Gal6S(b1-3)GlcNAc,-0.512
same,glycan array binding signal (z-score),Gal6S(b1-3)GlcNAc6S,0.99
same,glycan array binding signal (z-score),Gal6S(b1-4)Glc,-0.026
same,glycan array binding signal (z-score),Gal6S(b1-4)Glc6S,0.802
same,glycan array binding signal (z-score),Gal6S(b1-4)GlcNAc,-0.454
same,glycan array binding signal (z-score),Gal6S(b1-4)GlcNAc6S,0.37
same,glycan array binding signal (z-score),GalNAc(a1-3)Gal,-0.472
same,glycan array binding signal (z-score),GalNAc(a1-3)GalNAc,-0.501
same,glycan array binding signal (z-score),[14],-0.518
same,glycan array binding signal (z-score),[15],-0.509
same,glycan array binding signal (z-score),GalNAc(b1-3)Gal,0.477
